# Measurements: PubChem BioAssay (NCI)
#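 Cells were grown in 96-well plates and exposed to each compound for 48 hours at five concentrations; endpoints were interpolated linearly between bracketing concentrations, or set to the highest concentration if not reached. Abbreviation: GI50, concentration required for 50% inhibition of growth. Definition used: TGI = concentration required for complete inhibition of growth.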
# Test system: NCI-H322M lung
# Assay: growth of human tumour cells (NCI), 48 h
SMILES,TGI,GI50
CN(C)c1ccc(/C=C2\N=C(N/N=C/c3ccc(N(C)C)cc3)NC2=O)cc1,> 100 µM,
COC(=O)c1ccc([C@H]2c3[nH]c4ccccc4c3C[C@H](C(=O)OC)N2C(=O)CCl)cc1,18.2 µM,5.42 µM
N=C(c1ccc(-c2cn3cc(C(=N)N4CCCC4)ccc3n2)cc1)N1CCCC1,> 100 µM,
Clc1ccc(Cl)c(N=Nc2cc3c4c(c2)CCCN4CCC3)c1,> 10 µM,
COC(=O)CCCc1ccc2c(c1)CC1(Cc3ccccc3C1)C2,> 100 µM,
CCN1C(Cl)=NS(=O)(=O)c2ccccc21,> 100 µM,
Cc1ccc(S(=O)(=O)N2CCCN(S(=O)(=O)c3ccc(C)cc3)CC2)cc1,> 100 µM,
CCCCCc1c(Cl)nc(Cl)nc1Cl,31.3 µM,
CC1(C)C(O)OC(O)C1(C)C (centres undefined),> 100 µM,
NCCOc1ncccc1/C=C1\C2C=CC=CC2C2C=CC(F)=CC12 (centres undefined),3.61 µM,1.64 µM
COc1cccc(-c2cc(=O)c3cc(NC(C)=O)ccc3[nH]2)c1,> 100 µM,
COc1ccc(C(=O)NCCNc2nccc(-c3c(-c4ccc(F)cc4)nc4sccn34)n2)cc1,44.1 µM,5.26 µM
Cn1ccnc1C(=O)/C=C/c1ccc(C(=O)Nc2ccccc2F)cc1,3.97 µM,1.81 µM
CCN(C(=O)N[C@@H](Cc1ccccc1)C(=O)N[C@@H](CC(C)C)C(=O)NC)c1ccccc1,> 100 µM,
C=C(C)C(=O)OC1C[C@H](COC(C)=O)C2CC=C(C)C2C2OC(=O)C(=C)[C@H]12 (some centres undefined),29.6 µM,
